Data: the supplement of paper PMC3334620
In all, about 33,000 sequences were measured (“E-score (-0.5 to 0.5)”: median about -0.043, highest 2% from about 0.37 on). Some of the results follow.

molecular target: T1, Upc2 (UniProt Q12151); test: PBM E-score (8-mer binding enrichment) (E-score (-0.5 to 0.5)); higher = stronger / more preferred TF binding; most listed sequences are background and not binding sites; settings: protein concentration: 200 nM; construct: GST-full length
T1 sequence: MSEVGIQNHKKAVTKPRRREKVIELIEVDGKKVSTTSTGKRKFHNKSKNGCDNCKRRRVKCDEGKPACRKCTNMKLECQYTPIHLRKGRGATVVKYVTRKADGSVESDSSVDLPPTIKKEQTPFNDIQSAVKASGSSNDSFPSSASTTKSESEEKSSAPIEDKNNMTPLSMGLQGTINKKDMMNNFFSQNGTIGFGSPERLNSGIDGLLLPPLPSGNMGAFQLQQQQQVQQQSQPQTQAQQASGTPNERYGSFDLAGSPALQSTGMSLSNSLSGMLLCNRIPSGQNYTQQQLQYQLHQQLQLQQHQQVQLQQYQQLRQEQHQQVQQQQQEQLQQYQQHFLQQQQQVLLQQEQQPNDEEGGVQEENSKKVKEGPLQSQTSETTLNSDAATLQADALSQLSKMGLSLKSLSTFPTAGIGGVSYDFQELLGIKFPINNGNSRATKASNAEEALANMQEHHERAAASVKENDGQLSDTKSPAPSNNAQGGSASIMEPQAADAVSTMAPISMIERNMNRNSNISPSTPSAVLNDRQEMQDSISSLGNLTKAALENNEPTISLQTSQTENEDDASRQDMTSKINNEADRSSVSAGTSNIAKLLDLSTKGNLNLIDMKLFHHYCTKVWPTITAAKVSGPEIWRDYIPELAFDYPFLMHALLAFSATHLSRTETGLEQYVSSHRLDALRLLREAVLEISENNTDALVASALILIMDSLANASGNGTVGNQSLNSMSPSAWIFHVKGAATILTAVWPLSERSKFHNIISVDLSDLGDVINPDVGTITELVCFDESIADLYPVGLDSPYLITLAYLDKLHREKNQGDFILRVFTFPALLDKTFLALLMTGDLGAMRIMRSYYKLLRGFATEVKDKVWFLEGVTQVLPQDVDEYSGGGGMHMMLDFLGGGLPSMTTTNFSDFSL
In short: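 The E-score, a modified Wilcoxon-Mann-Whitney statistic, was computed by the Universal PBM Analysis Suite for every ungapped eight-base word pooled with its reverse complement. Scans behind it were normalised with masliner after bound GST-tagged yeast transcription factors were detected with fluorescent anti-GST. The proteins, at about 100-200 nM, had been applied to universal all-10-mer Agilent arrays made double-stranded by primer extension.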

Sequence | PBM E-score
GCAGATTA | -0.139
AATTATTC | 0.0677
CGGGGTAG | -0.0778
AGCTAAGG | -0.435
ACCACCAC | -0.233
AGAAATTC | 0.00366
AAATCGCA | -0.0494
AGTCTGAA | -0.0807
ACGCCTTG | -0.0944
AAAGCTTT | 0.00261
AAAACAGT | 0.118
ACAGCCCG | -0.227
ATAGTCTC | 0.138
AGTACGGA | 0.224
ACTCAGAC | -0.0991
CAATAAAA | -0.0856
CCGGCTGC | -0.14
AATCTCTG | -0.0552
AGAGAGAA | -0.135
AAAAGGCC | 0.0371
CTGATGGA | -0.301
GAGTCAGA | -0.00838
AACTCCGA | -0.173
ACTAACAG | 0.00472
CCAATTAA | -0.0911

Sequence | PBM E-score
AAAAACGG | 0.117
AGTGTTAA | -0.0323
AGAGGAAA | -0.0639
CTGTAGAA | -0.122
AGGACAAT | -0.219
ATGCATTA | -0.0422
GATAGCAA | -0.0335
ACTGAGCC | -0.0811
CCGTTATA | 0.0813
ACACAGAG | -0.201
AGGGACCT | -0.0442
ATGATCTG | -0.126
AAATACAT | -0.18
ACAACTGC | -0.145
CCAAAGTA | -0.149
AGGCTGAG | -0.334
CAAACCAC | -0.0352
ACATCAAT | 0.0394
GAAGTTAA | 0.0808
CAACATCC | -0.118
CGACAAGC | 0.0834
CGCTGTGC | -0.112
CCGGGAGC | 0.0964
GGACAAAC | 0.0202
ATCAATGC | -0.23

Sequence | PBM E-score
AACATCCA | -0.0529
ATAGCCAG | -0.187
GAAAAGGA | -0.106
AATAACAC | 0.011
GACCAAGC | -0.234
AAACCCAG | -0.0692
ACATCAAC | -0.0117
CCACCAAG | -0.252
ATGGAAAA | -0.0492
ACCTCCAA | -0.167
ACGGGTCA | -0.0315
CCTGATCG | 0.0348
TCCTGCCA | -0.307
GAGCTAAA | -0.0249
AAATTGAT | -0.0683
ATTTGTGA | -0.0807
ATTTGGGA | -0.084
ACGTGCCT | 0.0149
GTTACAAC | 0.0226
ATCTTCGG | 0.174
AAACTAAT | 0.144
ATCCCATC | -0.154
AGCCTGCG | -0.113
GTCCCCAC | -0.218
GAGTGGTA | -0.00107

Sequence | PBM E-score
ATGTCAAT | -0.122
AATCGAAC | 0.0976
TATAGGAA | 0.0753
GACTCACC | -0.212
GCCACTCA | -0.136
CTTCGAAC | 0.0736
GTATCAGA | 0.0608
GGACTGCA | -0.275
CAGTTGTC | -0.147
GACTAGAA | 0.0541
ATCGGCGG | -0.0679
CTTGGGTA | -1e-05
CGGACCCC | 0.103
ACATCAGC | -0.281
GGATAACA | -0.188
ACGTTCAA | 0.238
AGCATGTC | -0.219
ATATTAGG | 0.0917
AGGATGGA | -0.0125
AGTACCCC | -0.00507
ATTGCAAT | -0.00146
ATCGACAA | 0.0687
TAACGACA | 0.381
GTAGCTCA | -0.169
ATCAAAGA | -0.232

Sequence | PBM E-score
GATTCGGC | 0.0544
CCCTAGAG | -0.382
GCCTATCC | -0.103
TACTCAGA | -0.0518
ATTAGAGC | 0.0731
ACATCGAT | -0.0473
ACTAAGGA | 0.0681
CTGACTGC | -0.214
GTGGAGGA | -0.181
GACACGCC | 0.0711
AGCTGGTA | -0.167
CTCAGTCA | -0.205
GGAAATTA | -0.0619
GAGAGCCC | 0.0408
ACAGTCTG | -0.015
GAGCCAGA | -0.182
TCGCCCGA | -0.206
CGGATAGC | 0.159
CCGTCAAA | 0.0979
GATTTGAA | -0.0247
ACATACCG | 0.0168
AGCATCAT | -0.246
TACGATAA | 0.416
CAAATTTC | 0.049
AACTCGCT | 0.254

Sequence | PBM E-score
AGCTCGCA | 0.205
GACCACTC | 0.0262
GTACCTCA | 0.0144
CTAGGCAC | -0.258
GCCTGATA | -0.0477
AAAGGAAG | -0.2
CTCGCGAA | 0.267
CGGGATCC | 0.0926
CCGTGAAA | -0.0103
CTTTACTA | -0.117
AACTTGCA | 0.0503
GCCCCTGA | -0.2
ACGGTTTG | 0.18
GTGAGCCA | -0.117
ATAAATAA | 0.202
CAATGGAA | -0.0836
CCTCTTCA | -0.149
ATAAGTAA | 0.0283
CTCTTAGA | -0.0667
TCGTCACA | 0.00434
AGAAAAAC | 0.00162
CCGGTCCC | -0.168
ATTACGAG | 0.378
AATTAGCC | -0.128
AGATTATG | -0.0643

Sequence | PBM E-score
AGCGTGGG | -0.219
ACATCATA | 0.00174
CCATCCCC | -0.274
CACATGCG | -0.0229
TCGGCCAA | -0.0693
CGAATGGC | -0.0195
CAGGGACG | -0.198
CAGCCCAA | -0.0637
GGCCACGA | -0.208
CCCACTGC | -0.13
TAGCTCCA | -0.0994
AGTGGCGG | -0.222
CGAACCGA | 0.293
TCGTGCCA | -0.00902
GTAACGAC | 0.326
CATTCTTC | -0.129
TACCAAAA | -0.062
CACTAGCA | -0.201
AGATACGA | 0.454
ATGGGCTG | -0.154
AATCACCA | -0.0247
ACAGGCCC | -0.29
